Screen size: about 310,000 compounds; about 14,000 (4.5%) showed an effect of 50% or more. Effects have a minus sign here. Some of the results follow.

Data on 88 compounds can be found in PMC4336329 (PLoS ONE, 2015).
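Further: peak tail current of the secondary pulse compared with the same well before compound.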

The target in the assay is human ether-à-go-go-related gene (hERG) potassium channel (human, UniProt Q12809). As to the kind of experiment: primary screen, population patch clamp on CHO cells stably expressing hERG.
Sequence of human ether-à-go-go-related gene (hERG) potassium channel (Q12809 whole entry, looked up): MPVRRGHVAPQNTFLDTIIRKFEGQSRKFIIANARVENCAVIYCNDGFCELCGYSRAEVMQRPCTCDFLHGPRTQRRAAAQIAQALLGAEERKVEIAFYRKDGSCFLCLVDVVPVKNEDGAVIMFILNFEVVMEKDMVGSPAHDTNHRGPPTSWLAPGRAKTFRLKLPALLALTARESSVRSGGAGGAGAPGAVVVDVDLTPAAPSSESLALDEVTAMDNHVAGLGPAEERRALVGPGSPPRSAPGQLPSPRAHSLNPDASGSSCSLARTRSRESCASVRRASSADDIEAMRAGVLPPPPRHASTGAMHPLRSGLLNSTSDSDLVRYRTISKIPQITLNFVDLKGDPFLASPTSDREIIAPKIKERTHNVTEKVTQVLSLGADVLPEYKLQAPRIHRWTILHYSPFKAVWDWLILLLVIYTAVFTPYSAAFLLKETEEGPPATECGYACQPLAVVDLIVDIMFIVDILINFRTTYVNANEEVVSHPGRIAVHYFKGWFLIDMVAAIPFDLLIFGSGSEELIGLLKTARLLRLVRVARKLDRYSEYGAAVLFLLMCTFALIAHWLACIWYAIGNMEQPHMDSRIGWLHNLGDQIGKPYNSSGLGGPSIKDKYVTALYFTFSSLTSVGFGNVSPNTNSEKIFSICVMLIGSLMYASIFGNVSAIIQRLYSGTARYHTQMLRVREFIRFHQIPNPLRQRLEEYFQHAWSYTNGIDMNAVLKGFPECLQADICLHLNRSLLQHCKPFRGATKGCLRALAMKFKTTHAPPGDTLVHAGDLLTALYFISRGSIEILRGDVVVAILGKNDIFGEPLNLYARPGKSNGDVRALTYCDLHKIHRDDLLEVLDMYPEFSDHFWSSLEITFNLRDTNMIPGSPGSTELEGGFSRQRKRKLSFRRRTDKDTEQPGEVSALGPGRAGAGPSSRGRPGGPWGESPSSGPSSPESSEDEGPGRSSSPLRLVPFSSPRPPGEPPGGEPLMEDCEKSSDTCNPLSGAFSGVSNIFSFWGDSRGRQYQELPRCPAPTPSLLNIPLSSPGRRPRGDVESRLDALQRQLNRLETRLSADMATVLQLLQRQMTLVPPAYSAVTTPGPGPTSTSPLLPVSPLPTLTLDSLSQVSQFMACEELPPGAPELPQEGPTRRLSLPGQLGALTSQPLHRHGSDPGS
Consider `COCC(=O)Nc1ccccc1Br`, for which the “hERG current change (%, negative = inhibition) at 10uM” value amounted to 5.26%. Under `COc1cc(C2C(C#N)=C(N)Oc3n[nH]c(C)c32)ccc1OC(=O)c1ccccc1` (stereo not shown) stands 0.432%.

In the case of `COCCNCCOCCOc1ccc(Cl)c(C)c1.O=C(O)C(=O)O`, the “hERG current change (%, negative = inhibition) at 10uM” value was -21.9%. Take `COc1ccc(CCNC(=O)C2CCCN(S(=O)(=O)N3CC(C)CC(C)C3)C2)cc1OC` (stereo not shown): the “hERG current change (%, negative = inhibition) at 10uM” value was 8.11%. Take `COc1ccc(S(=O)(=O)N(C)C2CCN(C)CC2)cc1`: the “hERG current change (%, negative = inhibition) at 10uM” value was -26.1%. To `CCCN(CC(=O)Nc1ccc(F)c(F)c1F)C(=O)CCc1nc2ccccc2c(=O)[nH]1` belongs -45.8%. Under `CCCCNC(=O)c1ccc(N2CCC3(CC2)OCCO3)c([N+](=O)[O-])c1` stands -22.2%; under `O=c1[nH][nH]cc1C=Nc1ccc(Oc2ccccc2)cc1`, 11.6%.

Take `COc1ccccc1CNC(=O)CCc1cn(C)c2ccccc12`: the “hERG current change (%, negative = inhibition) at 10uM” value is -2.68%. To `CC(C)C(=O)NC(C)C(c1cccs1)N1CCN(c2ccccc2)CC1` (stereo not shown) belongs -29.9%; to `CCCN(CC(=O)Nc1ccccc1C)C(=O)Cc1coc2cc(C)ccc12`, -42.1%. To `CCc1ccccc1NS(=O)(=O)c1cc(C)ccc1OC` belongs -5.89%. As to `CC1(C)CC(=O)C(C(c2ccc(F)cc2)C2C(=O)CC(C)(C)CC2=O)C(=O)C1`, the “hERG current change (%, negative = inhibition) at 10uM” value amounted to 6.64%. To `CCN(CC(=O)NC(=O)NCc1ccco1)Cc1nc2ccccc2c(=O)[nH]1` belongs -16.6%. Under `CC(C)(C)NC(=O)COc1ccc(CNc2ccc3[nH]c(=O)[nH]c3c2)cc1` stands -1.87%. Under `Cc1nc2c(o1)CCc1ccccc1C2N1CCN(C)CC1.O=C(O)/C=C/C(=O)O` (stereo not shown) stands -5.58%. On to `COc1cccc(/C(O)=C2/C(=O)C(=O)N(CCN3CCOCC3)C2c2cccnc2)c1` (stereo not shown), for which the “hERG current change (%, negative = inhibition) at 10uM” value is given as 7.31%. Under `CCc1cccc(N(CC(=O)NC2CCCCC2)C(=O)c2csnn2)c1` stands 1.71%; under `COC(=O)c1cc2n(n1)CCN(Cc1ccc(F)cc1)C2=O`, -16.6%. On to `Cc1ccccc1C(=O)N/N=C/c1ccsc1C`, for which the “hERG current change (%, negative = inhibition) at 10uM” value is recorded as 15.1%.

In the case of `O=C(C1CCCO1)N1CCN(c2ccc(F)cc2)CC1` (stereo not shown), the “hERG current change (%, negative = inhibition) at 10uM” value is on record as -2.42%. Under `CCOC(=O)c1cnn2c(C)cc(-c3ccc(F)cc3)nc12` stands -24.6%; under `CN(C)S(=O)(=O)c1cccc(COC(=O)c2cccnc2Cl)c1`, -26.9%; under `c1ccc(C2=Nn3c(Cn4nnc5ccccc54)nnc3SC2)cc1`, -4.34%. To `CCCn1nc(Oc2nc(NCC)nc(NCC)n2)ccc1=O` belongs 1.1%; to `CCC(C)(C)C1CCC2(CC1)NC(=O)N(CC(=O)N(C)CC(=O)Nc1ccccc1C(F)(F)F)C2=O` (stereo not shown), -5.55%. To `Cc1ccnn1CCC(=O)N1CCCC(Nc2ccc(F)c(F)c2)C1` (stereo not shown) belongs 7.99%. As for `Cc1cccc(C(=O)NCCc2ccccc2)c1`, the “hERG current change (%, negative = inhibition) at 10uM” value turned out to be 1.51%. For `CCCc1ccc(C(=O)CN2C(=O)C(=O)N(C3CCCC3)C2=O)cc1`, the “hERG current change (%, negative = inhibition) at 10uM” value is given as -42.4%. To `O=C(Cn1nc(C(=O)O)c2ccccc2c1=O)Nc1ccc(Br)cc1` belongs 11.5%. Under `CCC(CC)c1nnc(NC(=O)Oc2ccccc2)s1` stands -2.43%.

With `CCSc1nnc(NC(=O)c2ccc(Br)s2)s1`, the “hERG current change (%, negative = inhibition) at 10uM” value was 2.27%. Under `CC(C)n1cnnc1SCC(=O)Nc1cccc(S(=O)(=O)N(C)c2ccccc2)c1` stands -12.4%; under `CC(C)CO/C(=N/S(=O)(=O)c1ccccc1)c1ccccc1`, 2.73%.

For `CCc1cc(=O)oc2cc(OC(C)C(=O)NCc3ccccn3)ccc12` (stereo not shown), the “hERG current change (%, negative = inhibition) at 10uM” value is on record as 14.4%.

Consider `CC(C)NC(=O)C1CCCN(c2nnc(-n3cccc3)s2)C1` (stereo not shown), for which the “hERG current change (%, negative = inhibition) at 10uM” value was -16.4%. Under `COc1cc(CO)ccc1OCC(=O)Nc1cccc2ccccc12` stands 6.8%.

In the case of `CCCNC(=O)C1CC(c2ccccc2[N+](=O)[O-])=NO1` (stereo not shown), the “hERG current change (%, negative = inhibition) at 10uM” value is recorded as 8.52%. Under `O=C(O)CC(NNC(=O)c1ccccc1)C(=O)Nc1cccc([N+](=O)[O-])c1` (stereo not shown) stands 23.3%; under `Cn1cnnc1SCC(=O)c1ccc(O)c(O)c1`, 18.7%; under `COC(=O)c1sccc1NC(=O)c1cc(-c2ccc(C)cc2C)nc2ccccc12`, 6.94%. To `Nc1nc(NCC2CCCO2)nc(Nc2ccc(F)cc2)c1[N+](=O)[O-]` (stereo not shown) belongs -7.87%; to `CC#CC[N+](C)(C)CCCCCCCCCCCC.[Br-]`, -49%; to `O=C(c1c[nH]c(C(=O)N2CCN(Cc3ccccc3)CC2)c1)C1CCCCC1`, -5.11%. To `CCOC(=O)c1sc(-c2ccccc2)cc1NC(=O)Nc1ccc([N+](=O)[O-])cc1` belongs 12.9%. Regarding `Cc1ccc([N+](=O)[O-])cc1NC(=S)NC(=O)c1cccs1`, the “hERG current change (%, negative = inhibition) at 10uM” value is reported as 9.89%. To `Cc1cc(NC(=O)CSc2nc(C3CCCCC3)nc3ccccc23)no1` belongs 18.9%. To `O=c1[nH]n(-c2cccc3cccnc23)c(=O)c2ccccc12` belongs -11.5%; to `Cc1sc2ncn(CC(=O)Nc3c(F)cccc3F)c(=O)c2c1S(=O)(=O)N1CCC(C)CC1`, 7.07%; to `CNCc1c(OCc2ccccc2F)ccc2ccccc12.Cl`, -63.5%. For `Cc1cccn2c(=O)c3cc(C#N)c(=NC(=O)c4cccs4)n(CCCOC(C)C)c3nc12`, the “hERG current change (%, negative = inhibition) at 10uM” value is listed as -80.7%. With `Cc1cccc(-c2noc(C3CCCCC3)n2)c1`, the “hERG current change (%, negative = inhibition) at 10uM” value worked out at 9.7%.

In the case of `CCN1CCN(c2ccc(NC(=O)c3ccco3)cc2)CC1`, the “hERG current change (%, negative = inhibition) at 10uM” value stood at 8.62%. To `Cl.N[C@@H](Cc1ccccc1)C(=O)N1CCC(C(=O)N[C@@H](CCC(=O)O)C(=O)O)CC1` belongs 7.18%. Regarding `Cc1ccc(C)c(NC2=CC(=O)CC(C)(C)C2)c1C#N.Cl`, the “hERG current change (%, negative = inhibition) at 10uM” value is on record as -12.8%.

On to `O=C(Nc1ccccn1)c1sc2cc([N+](=O)[O-])ccc2c1Cl`, for which the “hERG current change (%, negative = inhibition) at 10uM” value is recorded as 24.8%. As for `O=[N+]([O-])c1ccc(N/N=C/c2cccnc2)cc1`, the “hERG current change (%, negative = inhibition) at 10uM” value worked out at 1.93%. To `COCCN(C(=O)Cn1nnc2ccccc21)C(C(=O)NC1CCCC1)c1cc(OC)ccc1OC` (stereo not shown) belongs 1.8%; to `Cc1c(N/N=C(\C#N)C(=O)c2ccc(Cl)cc2)c(=O)n(-c2ccccc2)n1C`, 0.112%. Under `O=C(Nc1ccc2c(c1)OCCO2)C1CCCN1C(=O)Nc1ccc(F)cc1` (stereo not shown) stands -3.21%; under `CCCCN(Cc1cccs1)S(=O)(=O)c1ccc(-c2ccc(=O)[nH]n2)s1`, -3.4%; under `Cc1nonc1CC(=O)NC1CC(C)(C)Cc2c1cnn2-c1ccc(F)cc1` (stereo not shown), -15.7%.

Regarding `O=C(COC(=O)c1cc([N+](=O)[O-])ccc1NCc1ccccc1Cl)NCC(F)(F)F`, the “hERG current change (%, negative = inhibition) at 10uM” value was -7.81%. Under `CCNC(=S)N/N=C(\C)c1ccc(Cl)s1` stands 10.3%; under `CC(=O)NCCn1c(SCc2ccccc2C)nc2ccccc2c1=O`, -17%.

Take `COc1ccc(OC)c(NC(=O)Cn2c(=O)oc3ccccc32)c1`: the “hERG current change (%, negative = inhibition) at 10uM” value worked out at 15.7%. For `CCN(CC)S(=O)(=O)c1ccc(N2CCCCC2)c(NC(=O)c2ccncc2)c1`, the “hERG current change (%, negative = inhibition) at 10uM” value is on record as -29.5%. As for `COc1ccccc1CNC(=O)CCc1nnc2ccc(NCCCN3CCCC3=O)nn12`, the “hERG current change (%, negative = inhibition) at 10uM” value is 19.8%. Under `Cc1ccc(S(=O)(=O)N(C)C)cc1NC(=S)Nc1ccc2cn[nH]c2c1` stands -32.3%. To `COc1ccc(OCc2nnc(SCC(=O)NC3CC3)n2C)cc1` belongs 6.89%. To `COc1ccc(CCN(C)C(=O)COc2ccc(N(C)S(=O)(=O)c3ccc(C)cc3)cc2)cc1OC` belongs -38.7%. Take `CCOC(=O)N1CCC(N2C(=O)c3ccccc3C2Nc2ccc3c(C)cc(=O)oc3c2)CC1` (stereo not shown): the “hERG current change (%, negative = inhibition) at 10uM” value is reported as -63.8%. To `C=CCc1cccc2cc(C(=O)NC3=C(C#N)CCC3)c(=O)oc12` belongs 0.713%. Under `Cc1ccc2occ(C(=O)c3ccco3)c(=O)c2c1` stands -4.53%. Under `Cc1cc(C(=O)N/N=C/c2ccc3c(c2)OCO3)c(C)o1` stands 13.8%; under `OCC1(Cc2ccccc2)CCCN(C2CCCC2)C1` (stereo not shown), -8.01%. On to `CN1C(=O)C(c2ccccc2)C(=O)N(C)C1=O`, for which the “hERG current change (%, negative = inhibition) at 10uM” value is listed as 13.6%. To `CC(NC(=O)c1ccc(-c2ccccc2)cc1)C(c1ccccc1)N1CCOCC1` (stereo not shown) belongs -20.3%. Regarding `CCC(C)/C=C/C1=CC2=C(Cl)C(=O)C3(C)OC(=O)C(C(=O)C(C)C(C)O)C3C2=CO1` (stereo not shown), the “hERG current change (%, negative = inhibition) at 10uM” value is reported as 2.49%. To `Cc1ccc(C(N)=S)c(C)c1` belongs 20.2%. As to `CCc1ccc2[nH]c3nc(SCc4nnc(-c5ccccc5)o4)nnc3c2c1`, the “hERG current change (%, negative = inhibition) at 10uM” value is on record as 0.983%. For the compound `Cc1ccc2nc(SCC(=O)NCc3ccc4c(c3)OCO4)nc(=O)n2c1`, the “hERG current change (%, negative = inhibition) at 10uM” value is listed as -9.83%.

Regarding `CCOC(=O)c1c(C)n(CCOC)c2ccc(O)cc12`, the “hERG current change (%, negative = inhibition) at 10uM” value is on record as 12.9%.

With `CCOC(=O)CN(C(=O)CSc1nnc(C)n1-c1ccccc1)c1cccc([N+](=O)[O-])c1`, the “hERG current change (%, negative = inhibition) at 10uM” value is -19%. To `O=C(COC(=O)c1c2c(nc3ccccc13)/C(=C\c1cccs1)CCC2)Nc1ccccc1Cl` belongs 12.5%; to `O=C(c1nn(-c2ccccc2)c(=O)c2ccccc12)N1CCN(c2ncccn2)CC1`, 4.54%; to `CC(C)Cc1ccc(C(C)C(=O)Nc2nccs2)cc1` (stereo not shown), -1.33%. Under `CC(=O)N1CCN(S(=O)(=O)c2cccc(C(=O)Nc3ccccc3N3CCCC3)c2)CC1` stands -1.44%.
